SMILES strings stand for the structures. “And” between values parts separate entries of the source, which are not always exact repeats. Equal entries are not always repeated. Screen size: about 48,000 compounds; about 1,200 (2.5%) were called active. About 2% were inconclusive and are not listed.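 Rule for the calls: active = activation of at least 60% and not above a set upper limit (about 1 call in 100 departs from these limits); inconclusive = activation of 40% to 60%, or above that upper limit; inactive = activation under 40%.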 The list shows a part of the results.

These results are taken from PubChem BioAssay AID1346428 (National Center for Advancing Translational Sciences (NCATS), 2018).

This assay concerns the target Probable G-protein coupled receptor 32 (Homo sapiens) (UniProt O75388). Nature of the assay: qHTS for Agonists of Human Resolvin D1 Receptor DRV1. Note: 0% is about no effect. The conditions noted are these: CHO-K1 GPR32 beta-arrestin PathHunter luminescence, 90 min; at 76.9 µM; stronger effect = higher value; zero percent set by DMSO-only wells. Summed up: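 GPR32 activation in stably transfected CHO-K1 cells, detected as beta-arrestin recruitment by enzyme-fragment complementation. Compound exposure: 90 min, 37 °C.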
Sequence of UniProt O75388 (O75388 whole entry, looked up, the tested form may be a part): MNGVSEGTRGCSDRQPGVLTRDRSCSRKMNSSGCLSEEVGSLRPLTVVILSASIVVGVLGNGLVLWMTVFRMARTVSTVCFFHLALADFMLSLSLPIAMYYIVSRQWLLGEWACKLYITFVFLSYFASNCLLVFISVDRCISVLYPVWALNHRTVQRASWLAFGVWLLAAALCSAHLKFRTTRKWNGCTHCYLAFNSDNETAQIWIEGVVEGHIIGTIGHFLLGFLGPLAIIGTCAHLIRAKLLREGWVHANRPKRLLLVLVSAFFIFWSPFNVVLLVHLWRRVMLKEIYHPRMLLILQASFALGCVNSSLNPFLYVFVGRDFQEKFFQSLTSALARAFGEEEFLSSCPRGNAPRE
Consider `Oc1cc(O)c2c(c1)O[C@H](c1ccc(O)c(O)c1)[C@H](O)C2`, for which the activation is inactive: -50.8%.
Regarding `Nc1nc2ccc(OC(F)(F)F)cc2s1`, the activation was inactive: 10% and inactive: 1.14%.
As to `CCOC(=O)C(CC)n1nc(C)n2c(cc3occc32)c1=O` (stereo not given), the activation was inactive: 0.468%.
The same measure for `COc1ccc(C(=O)COC(=O)c2cccc(NC(=O)c3ccc(OC)c(OC)c3)c2)cc1`: inactive: 1.61%.
Consider `Cc1cccc(OCC(=O)OCc2cc(=O)n3nc(C4CCCCC4)sc3n2)c1`, for which the activation is inactive: -2.38%.
The same measure for `Cc1csc2nc(-c3cccc(NC(=O)c4ccccc4Cl)c3)cn12`: inactive: -6.27%; for `Cc1ccc(-c2nc3ccccn3c2Nc2ccc3c(c2)OCO3)cc1`: inactive: -21.8%; for `COc1ccnc2c1CCCCC2S(=O)c1nc2ccccc2[nH]1` (stereo not given): inactive: 9.92%.
The figure for `Cc1ccc(CNC(=O)CCc2c(C)nn(-c3ccc(N4CCCCC4)nn3)c2C)cc1` is inactive: -5.71%; for `COc1ccc(C(=O)c2cn(Cc3ccc(F)cc3)c3ccc(C)cc3c2=O)cc1` it is inactive: -16.4%.
The figure for `CN1CCC(=C2c3ccccc3CCc3cccnc32)CC1` is inactive: -31.8%.
`O=C(NC1CCCCCC1)C1CCN(C(=O)N2CCOc3ccccc32)CC1`: the activation was inactive: -13.6%.
Consider `Cc1ccc(S(=O)(=O)NCC(c2ccc(N(C)C)cc2)N2CCOCC2)cc1` (stereo not given), for which the activation is inactive: -22.4%.
With `Cc1ccc(S(=O)(=O)NCCc2nnc3ccc(SCc4ccccc4C)nn23)cc1`, the activation is inactive: -24.8%.
The same measure for `COc1ccc(N2CCN(C(=O)Cn3cnc4nc5c(cc4c3=O)CCCC5)CC2)cc1`: inactive: -9.98%; for `CCOC(=O)c1cccc(NC(=O)c2cc(CN3CCCC3)on2)c1`: inactive: -0.706%.
The same measure for `COc1ccc(/C=C\c2onc(C)c2S(=O)(=O)N2CCC(C(=O)Nc3ccccc3OC)CC2)cc1`: inactive: -21.3%; for `COc1ccc(OC)c(NC(=O)CSc2c3c(nc4ccccc24)CCCC3)c1`: inactive: -25.1%.
The same measure for `CC1CCN(S(=O)(=O)c2ccc3c(c2)N(CC(=O)NC(C)C)C(=O)CS3)CC1`: inactive: -2.87%; for `CCS(=O)(=O)N1N=C(c2ccc(C)cc2)CC1c1cc2ccc(OC)cc2nc1Cl` (stereo not given): inactive: 2.49%; for `COc1ccccc1OC(C)C(=O)NCC1(N2CCOCC2)CCCCC1` (stereo not given): inactive: -17.5%.
Turning to `Cc1ccc(Cn2cccc2C2=NC(C)(C)CO2)cc1`, the activation is inactive: 4.17%.
Take `CCc1nn(CCCC(=O)NCc2ccccc2Br)c(=O)c2cc3occc3n12`: the activation is inactive: -10.8%.
The figure for `Cc1ccc(OC(=O)c2cc(-c3ccc4c(c3)OCCO4)on2)c(C)c1` is inactive: -19.8%; for `CCCC(=O)N1c2ncnn2C2(CCCCC2)[C@@H]2CCCC[C@@H]21` it is inactive: 2.62%.
The same measure for `COc1ccc(NC(=O)CCNS(=O)(=O)c2cccc3nonc23)cc1`: inactive: -19.2%; for `CCCCOc1ccc(-c2nonc2NC(=O)c2ccco2)cc1`: inactive: 29.8%; for `Cc1ccc(OCC(=O)NCC2(N3CCN(C)CC3)CCCCC2)cc1C`: inactive: -4.74%.
The figure for `CSc1ccc(CCNC(=O)C2CCN(c3nc4ccccc4nc3C(F)(F)F)CC2)cc1` is inactive: -17.2%; for `O=C(Cn1c(=O)n(Cc2ccc3c(c2)OCO3)c(=O)c2oc3ccccc3c21)Nc1ccccc1` it is inactive: -15.9%.
With `CCc1ccc(-c2nc3ccc(Br)cc3c(C(=O)O)c2C)s1`, the activation was inactive: -24.7%.
The figure for `Cc1ccccc1CNC(=O)C1CCN(c2nnc(C)c3c(C)n(-c4ccccc4)nc23)CC1` is inactive: -4.73%; for `CCn1c(C(=O)NCc2cccc(Br)c2)cc2oc3ccccc3c21` it is inactive: -27.4%.
Turning to `COC(=O)c1ccc(NC(=O)c2c(NCc3ccc(C)o3)sc3c2CCCC3)cc1`, the activation is inactive: 1.66%.
For the molecule `CN1C(=O)C2(c3ccccc31)N(c1ccccc1)C(=O)CS2(=O)=O` (stereo not given), the activation was inactive: -4.19%.
Regarding `CCc1nnc(NC(=O)c2cc(=O)c3cc(C)c(C)cc3o2)s1`, the activation was inactive: -9.96%.
`COc1cc(-c2noc(-c3cc4cc(F)ccc4oc3=O)n2)cc(OC)c1OC`: the activation was inactive: -7.52%.
`Cc1cc(C)c2oc(C(=O)Nc3sc4c(c3C(=O)NCc3ccco3)CCC4)cc(=O)c2c1`: the activation was inactive: 5.75%.
With `C[C@@H]1CCN(C(=O)[C@H](CCCN=C(N)N)NS(=O)(=O)c2cccc3c2NC[C@H](C)C3)[C@@H](C(=O)O)C1`, the activation is inactive: -5.64%.
The same measure for `COc1ccc(-c2nc3scc(CCNS(=O)(=O)c4c(C)noc4C)n3n2)cc1`: inactive: -3.06%; for `Cc1ccc(NC(=O)/C=C/c2ccccc2)c(Br)c1`: inactive: 35.6%; for `CN1CCN(C(=O)C(=O)Nc2c3c(nn2-c2ccc(F)cc2)CSC3)CC1`: inactive: -11.4%.
Regarding `Cc1ccc(C)c(CN2C(=O)c3ccccc3S(=O)(=O)c3ccc(C(=O)Nc4ccccc4C(F)(F)F)cc32)c1`, the activation was inactive: -11%.
Regarding `CCN(CC)CCN(C(=O)c1ccco1)c1nc2ccc(Cl)cc2s1`, the activation is inactive: 45.3%.
The same measure for `Cn1c(SCc2ccc(F)cc2)nc2ccc(C(=O)NCc3ccc(F)cc3)cc21`: inactive: 2.74%.
The figure for `Cc1nn(CC(=O)NC2CC2)c(=O)c2cc3ccccc3n12` is inactive: 5.16%; for `Nc1ccn([C@H]2CC[C@@H](CO)O2)c(=O)n1` it is inactive: 5.14% and inactive: 7.57%.
The same measure for `COCCn1c(SCC(=O)c2cc(C)ccc2C)nc2cc(C(=O)NC3CCCC3)ccc2c1=O`: inactive: 0.748%; for `Cc1cc(C)cc(NC(=O)c2cc(S(=O)(=O)N3CCCCCC3)cn2C)c1`: inactive: -27.4%; for `Cc1ccc(-n2nc3c(N4CCC(C(=O)NC(C)C)CC4)nnc(C)c3c2C)cc1`: inactive: -8.62%.
As for `Cc1ccc(C2Nc3ccccc3-n3c(-c4ccccc4)c4c(=O)n(C)c(=O)n(C)c4c32)o1` (stereo not given), the activation is inactive: -7.09%.
The same measure for `Cc1ccc(NC(=O)Cn2c(-c3ccc4c(c3)OCO4)cn(-c3ccccc3)c2=O)cc1C`: inactive: -21.1%; for `CCC1CN(C(=O)N2CCC(C(=O)NCc3ccc(OC)cc3OC)CC2)c2cc(C)ccc2O1` (stereo not given): inactive: -20.2%; for `CCOc1ccc(-c2nc(SC(C(C)=O)C(=O)N(C)C)c3c(=O)n(C)c(=O)n(C)c3n2)cc1` (stereo not given): inactive: 12.9%.
The same measure for `Cc1c(Cl)cccc1-n1ncc(C(=O)Nc2ccc3c(c2)OCCO3)c1C1CCN(C(=O)OC(C)(C)C)CC1`: inactive: -28.7%.
The figure for `COc1ccc(-c2nn(C)c3sc(C(=O)Nc4cccc(F)c4)cc23)cc1OC` is inactive: -7.25%; for `CCc1ccc(NC(=O)c2ccc3c(c2)nnn3CC)cc1` it is inactive: 12.9%.
As for `Cc1ccc2cc3cc(C(=O)Nc4ccc(F)cc4Cl)oc3nc2c1`, the activation is inactive: -7.96%.
The same measure for `Cc1ccccc1OCC(=O)OCc1cc(=O)n2ccsc2n1`: inactive: 8.24%; for `CCN(CC)S(=O)(=O)c1ccc2c(c1)N(CC(=O)N1CCN(c3cccc(C(F)(F)F)c3)CC1)C(=O)CO2`: inactive: -20.5%.
With `COc1ccccc1CNc1ccc(-c2nc(C(C)C)no2)cc1[N+](=O)[O-]`, the activation was inactive: -22.4%.
On to `Cc1ccc(CCNC(=O)CN(c2ccc(C)cc2)S(=O)(=O)c2c(C)noc2C)cc1`, for which the activation was inactive: -6.9%.
The same measure for `CN(C)c1ccc(CNc2nc(-c3ccco3)nn2S(=O)(=O)c2ccc3ccccc3c2)cc1`: inactive: -25.8%; for `O=C(CSc1nc2c(c(=O)[nH]1)CCC2)Nc1ccccc1F`: inactive: 0.82%.
Regarding `Cc1cc(C)c2c(CC(=O)N(Cc3ccc(N(C)C)cc3)Cc3ccco3)coc2c1`, the activation is inactive: -9%.
`CCOc1ccc(CNC(=O)c2cc3oc4ccccc4c3n2C)cc1`: the activation is inactive: -16.8%.
On to `Cc1ccc(C)c(NC(=O)Cn2cc(C(=O)c3ccncc3)c(=O)c3cc(F)ccc32)c1`, for which the activation is inactive: -2.22%.
`COc1ccc(NC(=O)Cn2cnc3sc(C)c(S(=O)(=O)N4CCN(C)CC4)c3c2=O)cc1OC`: the activation is inactive: -4.41%.
With `COc1cccc(-c2nc(-c3ccc(-c4ccccc4)nc3OC)no2)c1`, the activation is inactive: -6.36%.
The figure for `CCOC(=O)C1CCN(C(c2ccccc2OC)c2c(O)cc(C)n(CCOC)c2=O)CC1` (stereo not given) is inactive: -4.33%; for `Cc1ccc(C(=O)Nc2ccc(Cl)c(-c3nc4ncccc4o3)c2)c(C)c1` it is inactive: 1.42%.
Take `Cc1ccccc1OCc1ccc(-c2nc(C#N)c(NCCCN(C)C)o2)o1`: the activation was inactive: -1.91%.
In the case of `Cn1nnnc1SCCCNCc1cccc(OCc2ccc(Cl)cc2)c1`, the activation is inactive: -0.582%.
Consider `CN(C(=O)C(Cl)Cl)c1ccc(OC(=O)c2ccco2)cc1`, for which the activation is inactive: -0.0861%.
For the molecule `O=C(Nc1ccc(F)cc1)[C@H](Cc1ccccc1)N1Cc2ccccc2C1=O`, the activation is inactive: -20.7%.
The same measure for `CCOc1ccccc1NC(=O)C1CCN(S(=O)(=O)c2c(C)noc2/C=C/c2ccc(C)cc2)CC1`: inactive: 19.7%.
In the case of `CCOc1ccc(C(=O)NCCn2cc(SCC(=O)NCCc3ccc(OC)c(OC)c3)c3ccccc32)cc1`, the activation is inactive: 27.8%.
The figure for `COC(=O)c1ccc(Nc2ncnc3c2nc2n3CCCC2)cc1` is inactive: -4.92%; for `COc1cc(/C=C/C(N)=O)cc(OC)c1OC` it is inactive: -26%.
As for `COc1ccccc1OCCn1cc(C(=O)c2cccs2)c2ccccc21`, the activation was inactive: -27.9%.
Consider `O=C(c1cc2c(=O)oc3ccccc3c2s1)N1CCN(c2cccc(Cl)c2)CC1`, for which the activation is inactive: 30.2%.
The figure for `COc1ccc(Cl)cc1NC(=O)Cn1ccn(Cc2ccc(C)cc2)c(=O)c1=O` is inactive: -11.3%; for `Cc1cccc(-n2c(SCC(N)=O)nc3c(oc4ccccc43)c2=O)c1` it is inactive: -8.47%; for `COc1ccccc1-c1nc(-c2ccc(Br)o2)no1` it is inactive: -14.2%.
In the case of `CCOC(=O)N1CCN(C(=O)CN(c2cccc(Cl)c2C)S(=O)(=O)c2ccc(C)cc2)CC1`, the activation is inactive: -3.8%.
